Screen size: about 310,000 compounds; about 2,200 (0.71%) showed an effect of 50% or more. Effects have a minus sign here. Some of the results follow.
The compounds below were run against human ether-à-go-go-related gene (hERG) potassium channel (human, UniProt Q12809) (assay: primary screen, population patch clamp on CHO cells stably expressing hERG).
human ether-à-go-go-related gene (hERG) potassium channel, sequence (Q12809 whole entry, looked up): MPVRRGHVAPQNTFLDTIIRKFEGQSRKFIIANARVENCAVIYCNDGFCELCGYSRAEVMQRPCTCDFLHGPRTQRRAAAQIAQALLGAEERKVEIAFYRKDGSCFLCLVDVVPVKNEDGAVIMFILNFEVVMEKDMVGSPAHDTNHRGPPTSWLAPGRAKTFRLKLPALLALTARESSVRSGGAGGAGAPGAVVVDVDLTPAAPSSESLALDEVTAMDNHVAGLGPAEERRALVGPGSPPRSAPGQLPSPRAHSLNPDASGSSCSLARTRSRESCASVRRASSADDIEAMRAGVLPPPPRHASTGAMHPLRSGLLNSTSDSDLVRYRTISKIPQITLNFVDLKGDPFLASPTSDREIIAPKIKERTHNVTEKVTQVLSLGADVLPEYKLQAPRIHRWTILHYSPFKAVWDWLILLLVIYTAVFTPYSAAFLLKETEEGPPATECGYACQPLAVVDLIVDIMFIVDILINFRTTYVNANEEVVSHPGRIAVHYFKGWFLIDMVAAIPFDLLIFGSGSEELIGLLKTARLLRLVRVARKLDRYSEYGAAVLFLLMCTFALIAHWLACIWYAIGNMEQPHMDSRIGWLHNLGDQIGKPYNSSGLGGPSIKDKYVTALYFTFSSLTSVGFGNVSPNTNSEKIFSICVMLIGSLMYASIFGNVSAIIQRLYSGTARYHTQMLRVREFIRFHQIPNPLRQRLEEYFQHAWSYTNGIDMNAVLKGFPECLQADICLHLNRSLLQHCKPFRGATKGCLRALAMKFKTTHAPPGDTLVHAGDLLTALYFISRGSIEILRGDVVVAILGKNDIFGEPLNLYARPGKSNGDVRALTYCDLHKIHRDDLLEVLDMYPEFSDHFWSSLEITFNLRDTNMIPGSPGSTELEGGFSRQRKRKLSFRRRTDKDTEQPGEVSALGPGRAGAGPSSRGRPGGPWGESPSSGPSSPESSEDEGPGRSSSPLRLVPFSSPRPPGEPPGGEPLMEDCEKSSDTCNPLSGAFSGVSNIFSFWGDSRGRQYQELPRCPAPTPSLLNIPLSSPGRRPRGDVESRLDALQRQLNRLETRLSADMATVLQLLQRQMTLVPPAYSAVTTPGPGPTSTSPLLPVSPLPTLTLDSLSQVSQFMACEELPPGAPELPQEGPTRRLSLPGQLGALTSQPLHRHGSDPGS

| SMILES | hERG current change (%, negative = inhibition) at 1uM [%] |
| --- | --- |
| CCOc1ccc(C2C(C#N)=C(N)Oc3cc(C)[nH]c(=O)c32)cc1OC (stereo not shown) | 2.61 |
| Cc1n[nH]c(C)c1S(=O)(=O)N1CCC(C(=O)Nc2cccc(F)c2)CC1 | 1.68 |
| O=C(COc1ccc(Cl)cc1)NCCC1=CCCCC1 | 9.28 |
| CCc1ccc(N(C(=O)c2csnn2)C(C(=O)NC(C)(C)C)c2ccncc2)cc1 (stereo not shown) | 7.8 |
| CCOc1ccc(N2CC(C(=O)NC3CCCC3)CC2=O)cc1 (stereo not shown) | -1.88 |
| CC(/C=C/c1cccc([N+](=O)[O-])c1)=N/NC(=O)c1cccnc1 | -8.4 |
| O=c1cc(O)nc(-c2ccc(Cl)cc2)s1 | 9.51 |
| N#CC1=C(SCc2ccccc2)NC(=O)CC1c1ccc(O)cc1 (stereo not shown) | -0.029 |
| O=C(Oc1cccc([N+](=O)[O-])c1)c1ccc2c(=O)n3c(nc2c1)CCC3 | -0.88 |
| Cc1ccccc1Nc1nc2ccccc2s1 | 7.12 |
| CCN1C(=O)/C(=C\C=C2/C=CC=CN2CC)SC1=S | 9.62 |
| COc1cccc(C(=O)NN2C(=O)C3C4C=CC(O4)C3C2=O)c1 (stereo not shown) | 17.7 |
| O=C(NCc1ccccn1)c1ccc2nc(C3CCCCC3)oc2c1 | 19.7 |
| Cc1ccc(CNC(=O)c2cc3ccccc3oc2=O)cc1 | 11.6 |
| CCCCCCc1c(C)nc(-n2[nH]c(C)c(CCO)c2=O)[nH]c1=O | 6.3 |
| O=C(Cn1cnc2ccccc21)c1ccc(Br)cc1 | 3.54 |
| CCOc1ccc(OCC)c(Nc2cc(C)nc3ncnn23)c1 | -7.97 |
| CCOC(=O)C1=C(c2ccccc2)NC(=S)NC1c1ccc(C)c([N+](=O)[O-])c1 (stereo not shown) | 2.13 |
| CCc1cc2ccccc2nc1Cl | 5.34 |
| CCn1nc(CC(=O)Nc2nnc(CC(=O)N3CCCC3)s2)c2ccccc2c1=O | 4.7 |
| Oc1ccc(-c2nc3ccccc3nc2-c2ccccc2)cc1 | 8.65 |
| COC(=O)c1sc2cc(C(F)(F)F)cnc2c1-c1cccnc1 | 9.19 |
| O=[N+]([O-])c1cccc(NC(=S)Nc2nc(-c3ccc(Cl)cc3Cl)cs2)c1 | 5.97 |
| Clc1ccc(-c2nc(/C=N/N3CCOCC3)c3ccccn23)cc1 | 7.64 |
| Cc1c(Cc2ccccc2)c(=O)oc2c(C)c(OCC(=O)N[C@@H](Cc3ccccc3)C(=O)O)ccc12 | 5.64 |

From article PMC4336329 (PLoS ONE, 2015)
